To fix the notation:
B1: GPR68, Q15743 (parent)
chain: MGNITADNSSMSCTIDHTIHQTLAPVVYVTVLVVGFPANCLSLYFGYLQIKARNELGVYLCNLTVADLFYICSLPFWLQYVLQHDNWSHGDLSCQVCGILLYENIYISVGFLCCISVDRYLAVAHPFRFHQFRTLKAAVGVSVVIWAKELLTSIYFLMHEEVIEDENQHRVCFEHYPIQAWQRAINYYRFLVGFLFPICLLLASYQGILRAVRRSHGTQKSRKDQIQRLVLSTVVIFLACFLPYHVLLLVRSVWEASCDFAKGVFNAYHFSLLLTSFNCVADPVLYCFVSETTHRDLARLRGACLAFLTCSRTGRAREAYPLGAPEASGKSGAQGEEPELLTKLHPAFQTPNSPGSGGFPTGRLA

In series [1] the parent is B1. Nature of the series: cAMP reporter score (Enrich2 score, wild type = 0); higher = more signal; HEK293T, FACS bins.
Series [2] covers variants of B1. The series can be described thus: surface expression score (Enrich2 score, wild type = 0); higher = more signal; HEK293T, FACS bins.

For 32 variants, cAMP reporter score and surface expression score results are on record in the GPR68 mutational scans of Howard et al. (2025).

The least precise scores are not listed. Not listed are two conditions whose scores span a narrow range. In variant names, del marks residues removed and ins residues inserted between the two positions. For part of these data: The data file names ogerin without a concentration.

With F307N, the cAMP reporter score was found to be 1.87 in series [1] (pH 5.5); 3.64 in series [1] (pH 6); 2.11 in series [1] (pH 6.5, modulator: ogerin). Also, the surface expression score in series [2] worked out at 1.5.
On to F307P, for which the cAMP reporter score in series [1] (pH 5.5) was 0.29; in series [1] (pH 6) it was -0.315; in series [1] (pH 6, modulator: ogerin), 0.23; in series [1] (pH 6.5, modulator: ogerin) it was 0.246. Besides, the surface expression score in series [2] was -0.274.
Turning to F307K, the cAMP reporter score in series [1] (pH 5.5) turned out to be 0.645; in series [1] (pH 6), 2.66; in series [1] (pH 6, modulator: ogerin), 1.24; in series [1] (pH 6.5, modulator: ogerin), 1.78. The surface expression score in series [2] worked out at 0.714.
Turning to F307V, the cAMP reporter score in series [1] (pH 5.5) stood at 1.06; in series [1] (pH 6), 0.497; in series [1] (pH 6, modulator: ogerin) it was 1.28; in series [1] (pH 6.5, modulator: ogerin) it was 0.38. Besides, in series [2], the surface expression score stood at 0.254.
The matching figures for F307M: 0.742, -0.137, 0.752, -0.061 and 0.457.
Consider F307S, for which the cAMP reporter score in series [1] (pH 5.5) is -0.027; in series [1] (pH 6), 0.212; in series [1] (pH 6, modulator: ogerin), 0.244; in series [1] (pH 6.5, modulator: ogerin), 0.51. In addition, in series [2], the surface expression score is -0.068.
Consider F307Y, for which the cAMP reporter score in series [1] (pH 5.5) is -0.546; in series [1] (pH 6), 1.15; in series [1] (pH 6, modulator: ogerin) it was -0.659; in series [1] (pH 6.5, modulator: ogerin), -0.058. Also, the surface expression score in series [2] was -1.26.
With F307Q, the cAMP reporter score was -0.009 in series [1] (pH 5.5); 0.026 in series [1] (pH 6); -0.042 in series [1] (pH 6, modulator: ogerin); -0.2 in series [1] (pH 6.5, modulator: ogerin). Moreover, the surface expression score in series [2] was 0.553.
As to F307I, the cAMP reporter score is 1.78 in series [1] (pH 5.5); 0.453 in series [1] (pH 6); 1.16 in series [1] (pH 6, modulator: ogerin); -0.066 in series [1] (pH 6.5, modulator: ogerin). For the same variant, the surface expression score in series [2] was 1.04.
On the same counts, the results for F307L are 0.306, 0.397, 0.318, 0.605 and 0.126.
With F307H, the cAMP reporter score in series [1] (pH 5.5) was 1.01; in series [1] (pH 6), 0.31; in series [1] (pH 6, modulator: ogerin) it was 1.09; in series [1] (pH 6.5, modulator: ogerin) it was 0.465. Besides, in series [2], the surface expression score was 0.739.
F307T: the cAMP reporter score in series [1] (pH 5.5) stood at 0.792; in series [1] (pH 6), 0.636; in series [1] (pH 6, modulator: ogerin), 1.26; in series [1] (pH 6.5, modulator: ogerin) it was 0.865. In series [2], the surface expression score came to 0.386.
On the same counts, the results for F307R are 0.793, 0.485, 0.647, 0.618 and 0.109.
Take A319_Y320insG: the cAMP reporter score in series [1] (pH 5.5) is 0.686; in series [1] (pH 6) it was -0.211; in series [1] (pH 6, modulator: ogerin) it was 0.338; in series [1] (pH 6.5, modulator: ogerin), 0.515. In addition, the surface expression score in series [2] is 0.22.
In the case of A319_Y320insGS, the cAMP reporter score was determined as 1.1 in series [1] (pH 5.5); 1.13 in series [1] (pH 6); 0.884 in series [1] (pH 6, modulator: ogerin); 0.894 in series [1] (pH 6.5, modulator: ogerin). Further, in series [2], the surface expression score came out at 0.514.
The matching figures for T309_C310insG: 0.366, 0.015, -0.512, 0.35 and 1.29.
Regarding T313_G314insGS, the cAMP reporter score in series [1] (pH 5.5) stood at 1.61; in series [1] (pH 6), 1.71; in series [1] (pH 6, modulator: ogerin), 0.97; in series [1] (pH 6.5, modulator: ogerin) it was 1.11. Further, in series [2], the surface expression score was determined as 1.53.
Consider Y320Q, for which the cAMP reporter score came to 0.515 in series [1] (pH 5.5); 1.11 in series [1] (pH 6, modulator: ogerin); 0.398 in series [1] (pH 6.5, modulator: ogerin). For the same variant, the surface expression score in series [2] came to 1.87.
Regarding Y320R, the cAMP reporter score in series [1] (pH 5.5) is 0.565; in series [1] (pH 6.5, modulator: ogerin), -0.433.
As for Y320N, the cAMP reporter score was 0.825 in series [1] (pH 5.5); 2.35 in series [1] (pH 6, modulator: ogerin); 0.964 in series [1] (pH 6.5, modulator: ogerin). Further, the surface expression score in series [2] came to 1.13.
With Y320M, the cAMP reporter score stood at 1 in series [1] (pH 5.5); 0.204 in series [1] (pH 6); 0.892 in series [1] (pH 6, modulator: ogerin); 2.5 in series [1] (pH 6.5, modulator: ogerin). Also, in series [2], the surface expression score turned out to be 1.04.
For the variant Y320G, the cAMP reporter score is -0.411 in series [1] (pH 5.5) and -0.663 in series [1] (pH 6, modulator: ogerin). The surface expression score in series [2] was found to be 1.76.
As to Y320F, the cAMP reporter score in series [1] (pH 5.5) is 1.07; in series [1] (pH 6), 0.116; in series [1] (pH 6, modulator: ogerin), 1.38; in series [1] (pH 6.5, modulator: ogerin), 0.472. Also, in series [2], the surface expression score was 0.633.
For the variant Y320I, the cAMP reporter score came out at 0.544 in series [1] (pH 5.5); 0.787 in series [1] (pH 6); 0.834 in series [1] (pH 6, modulator: ogerin); 0.203 in series [1] (pH 6.5, modulator: ogerin). Besides, in series [2], the surface expression score is 1.48.
On the same counts, the results for Y320K are 0.288, -0.078, 0.567, 1.32 and -1.04.
On to Y320P, for which the cAMP reporter score was 0.169 in series [1] (pH 5.5); 0.095 in series [1] (pH 6); -0.039 in series [1] (pH 6, modulator: ogerin); -0.096 in series [1] (pH 6.5, modulator: ogerin). Also, the surface expression score in series [2] amounted to 1.41.
For the variant Y320C, the cAMP reporter score in series [1] (pH 5.5) is -0.322; in series [1] (pH 6), -0.223; in series [1] (pH 6, modulator: ogerin) it was -0.201; in series [1] (pH 6.5, modulator: ogerin) it was 0.366. The surface expression score in series [2] was -0.349.
Take Y320H: the cAMP reporter score amounted to 0.102 in series [1] (pH 5.5); 0.495 in series [1] (pH 6); 0.129 in series [1] (pH 6, modulator: ogerin); 0.451 in series [1] (pH 6.5, modulator: ogerin). Also, the surface expression score in series [2] was -0.027.
Regarding Y320L, the cAMP reporter score is 0.152 in series [1] (pH 5.5) and -0.15 in series [1] (pH 6, modulator: ogerin). Besides, the surface expression score in series [2] turned out to be 0.023.
Take Y320D: the cAMP reporter score in series [1] (pH 5.5) is 0.278; in series [1] (pH 6), -0.688; in series [1] (pH 6, modulator: ogerin) it was 0.696; in series [1] (pH 6.5, modulator: ogerin), -0.104. For the same variant, in series [2], the surface expression score came to 0.668.
Take Y320A: the cAMP reporter score in series [1] (pH 5.5) is 0.933; in series [1] (pH 6) it was 0.091; in series [1] (pH 6, modulator: ogerin), 0.544; in series [1] (pH 6.5, modulator: ogerin), 0.352. In series [2], the surface expression score was 0.465.
As to Y320E, the cAMP reporter score is -0.231 in series [1] (pH 5.5); 0.277 in series [1] (pH 6); 0.321 in series [1] (pH 6, modulator: ogerin); -0.008 in series [1] (pH 6.5, modulator: ogerin). The surface expression score in series [2] was 0.437.
